Data: publication PMC12136788
This is one part of the list.

B1: chr1:93353930:93354034:+|CDS|ENSG00000117505|unk|total|mutant (ssRNA)
RNA: GGGAGUUCUACAGUCCGACGAUCUUUGGGAUUUGGCUCUUACAUCAGUGAAGUAAAAGAAGUCUUGCAAGAGUGUAAAACAGCCGCAUUAAAAAGAAGAAAGGCCAGUUCUCGUUUGGAAAACCUUGGCAUUCCUGAAGAAGACAACAGAGGAUUGAGCAUCA
B2: chr5:103210461:103210562:+|3pUTR|ENSG00000145725|unk|FALSE|unique (ssRNA)
RNA: GGGAGUUCUACAGUCCGACGAUCGAAUAAGGAGCUGGGAGAAAGGAGACCUGGGUAUUAAUCUCAGCUCUACCACUACAUGGUAGAGCUAUGUAGUGGUAGACUAUCUGGGAGACUCUAGAAUCUUUACCAUUCCCUCUACUACAACAGAGGAUUGAGCAUCA
B3: ENSG00000136451:be:win_151|CDS|ENSG00000136451|bound_else_gene|NA|bound_elsewhere_windowed (ssRNA)
RNA: GGGAGUUCUACAGUCCGACGAUCAAACCUCAGGGUGCACCAGAAACAUUAAAGGAUGCCAUUGGGAUUAAAAAAGAAAAACCCAAAACUUCAUUUGUGUGCACUUACUGCAGUAAAGCUUUCAGGGACAGCUAUCACCUGAGGCAACAGAGGAUUGAGCAUCA
B4: chr1:21217244:21217432:-|3pUTR|ENSG00000117298|msi1|total|mutant (ssRNA)
RNA: GGGAGUUCUACAGUCCGACGAUCCCGCUCCAGAGCUUUAAGGAAAAUGAAGUGAGACCCCUCCCCUCCGGCCUGGGGAGCCACCGGGCUGGCUUCUCUGUGGGUGCGUGGACGUGGGGUUGGGAGCUGGGAAUCUAUUUUUUGCAACAGAGGAUUGAGCAUCA
B5: chr9:14722165:14722672:-|CDS|ENSG00000147869|control|control|control (ssRNA)
RNA: GGGAGUUCUACAGUCCGACGAUCAUCCAGGGACUCAGAUAGUGAGCCCUUCCCACCUGGGACCCAGUCCCUCAUCCAGCCGAUAGAUGGAAUGAAAAUGGAGAAAUCUCCUCUUCGGGAAGAAGCCAAGAAAUUCUGGCACCACAACAGAGGAUUGAGCAUCA
B6: chr22:19969400:19969501:+|3pUTR|ENSG00000093010|msi1|total|mutant (ssRNA)
RNA: GGGAGUUCUACAGUCCGACGAUCUCCCCACUGGGCCUUGCUUACAGAAGAGGCAAUGGCUCAGACCAGCUCCCGCAUCCCUGCCGUUGCCUCCCUGGCCCAUGAGUGAGGAUGCAGUGCUGGUUUCUGCCCACCUACACCCCGCAACAGAGGAUUGAGCAUCA
B7: chr1:212100457:212100572:+|CDS|ENSG00000143476|unk|FALSE|unique (ssRNA)
RNA: GGGAGUUCUACAGUCCGACGAUCAGAAGAGGCUCUGUCUCCUCCGUCUCUCCCAAGCCACCUUCAUCUUUCAAGAUGUCGAUUAGAAACUGGGUGACCCGAACACCUUCCUCAUCACCACCCAUCACUCCACCUGCUUCGGAGCAACAGAGGAUUGAGCAUCA
B8: ENSG00000136451:be:win_2301|3pUTR|ENSG00000136451|bound_else_gene|NA|bound_elsewhere_windowed (ssRNA)
RNA: GGGAGUUCUACAGUCCGACGAUCAAAAAUCUACAAAUUGUGUUUUGCUAAGAAAAGCCUCAACUGACAGAGGAGAAGUCAAGUGUGUGGACAGGCAAGCUCCUAAUAAACAGAGUCCAGUGGGAUUCCUAUUUAGGAGCCAAGCAACAGAGGAUUGAGCAUCA
B9: chr1:100520103:100520216:+|3pUTR|ENSG00000079335|unk|total|mutant (ssRNA)
RNA: GGGAGUUCUACAGUCCGACGAUCUUACACAUGUGCCUACACCGACACACCAAGAAGUGGAUGUAUAUAAUACCGAAAGUAUACCGCAAAGUAAUUUUACUCUGAUAAUAAAAAUUGUUUGACAUGUAUUUUGUUAUGAACCGUCAACAGAGGAUUGAGCAUCA
B10: chr14:103503186:103503248:+|CDS_3pUTR|ENSG00000075413|msi1_unk|total|mutant (ssRNA)
RNA: GGGAGUUCUACAGUCCGACGAUCUGCUUCCAAAAUUGCCAAUGAGCUAAAGCUGUAACCCAGUGAUUAUGAUGUAAAUUAAGCCGCAAUUAAAGUGUUUUCCUGAACACUGAUGGAAAUGUACCGAAUAAUAUUCCGGCAAUACAACAGAGGAUUGAGCAUCA
B11: ENSG00000107863:be:win_3651|CDS|ENSG00000107863|bound_else_gene|NA|bound_elsewhere_windowed (ssRNA)
RNA: GGGAGUUCUACAGUCCGACGAUCUGUGAUAAGCAGUUUACUAAAAUCCUUCUUCAGAAAACUCCCUGAGCCUCUCUUCACAAAUGAUAAAUAUGCUGAUUUUAUUGAAGCCAAUCGUAAAGAAGAUCCUCUAGAUCGUCUGAACAACAGAGGAUUGAGCAUCA
B12: chr6:32292983:32294035:-|CDS|ENSG00000204296|control|control|control (ssRNA)
RNA: GGGAGUUCUACAGUCCGACGAUCACAGGAAGCCCAGGUAGAGAAGAGUGAGUUGAAGGUACCAAAAGGACAAGAAGGCCAAGUAGAGAAGACUGAGGCAGAUGUGCCAAAGGAACAAGAGGUCCAAGAAAAGAAGAGUGAGGCCAACAGAGGAUUGAGCAUCA
B13: chr4:68930545:68930765:-|CDS|ENSG00000135220|control|control|control (ssRNA)
RNA: GGGAGUUCUACAGUCCGACGAUCUCCCAUAUUUGGUGAUCAGCUUGAUAACAUAGCUCACAUGAAGGCCAAAGGAGCAGCUGUAGAAAUAAACUUCAAAACUAUGACAAGCGAAGAUUUACUGAGGGCUUUGAGAACAGUCAUCAACAGAGGAUUGAGCAUCA
B14: chr5:103029089:103029184:+|3pUTR|ENSG00000145730|msi1_unk|total|mutant (ssRNA)
RNA: GGGAGUUCUACAGUCCGACGAUCAACCAAGCUUUGAUUCCGAUUGAGUAAGAUUUACCCAGAAUGUCAGAUUCCUUUCCCUUCCGCACGUUUAAAGUUCUGUGUAUUUAAUUGUAAACUGUACCCGUCUGUGUGGGACUGUACCAACAGAGGAUUGAGCAUCA
B15: chr19:48970371:48970709:-|CDS|ENSG00000104812|control|control|control (ssRNA)
RNA: GGGAGUUCUACAGUCCGACGAUCCUAGGCCGGGUAGGACCCCCACUUUCCUAUCCUCUCCUGGCAAAUCAGCAGCUCCUGGCUAGGGGUCUUUGGUGCAGGGUGCAGGGUCUCAUCCUACUUGUAACAGUUGCUGUCCCUUUACAACAGAGGAUUGAGCAUCA
B16: chr1:35420597:35420698:+|3pUTR|ENSG00000146463|msi1|total|mutant (ssRNA)
RNA: GGGAGUUCUACAGUCCGACGAUCGUUCCUCUUAUUUUGUCUUUUGCACCAGUUUCUGGAGGCCCUUGUCAUUUCAAAAAGGACCGUCUCUUUUCUUACUCUGGCAAACCUGUGAGUGAUUCCACAAAGAUACAGUAUUACUUACAACAGAGGAUUGAGCAUCA
B17: chr18:70325936:70326038:+|CDS|ENSG00000170677|unk|total|mutant (ssRNA)
RNA: GGGAGUUCUACAGUCCGACGAUCAGCUUUCGCUCCCAUGGUAAAACACUUCACACCCGAAUUGAGCACUCAAAUGGCCGGUUCCGCUUUUAUGAACAGCCAGAUGUGGAAGGACAUACGUCCACCGUUGAUCUAAUUGAGCAUCAACAGAGGAUUGAGCAUCA
B18: chr6:44253573:44253761:+|CDS_3pUTR|ENSG00000096384|msi1_unk|total|mutant (ssRNA)
RNA: GGGAGUUCUACAGUCCGACGAUCUCGCAUGGAAGAAGUCGAUCCGGUCCGGAGUUCACCGUUGGAAAACUUGUGCCCUUGUACCGUGUCCCCAUGGGCUCCCACUGCAGCCUCGAGUGCCCCUGUCCCACCUGGCUCCCCCUGCAACAGAGGAUUGAGCAUCA
B19: chr15:48879495:48879609:+|3pUTR|ENSG00000255302|msi1|FALSE|bound_elsewhere (ssRNA)
RNA: GGGAGUUCUACAGUCCGACGAUCGACACUAAAUGUGUGUGAAUGUACAAAGAAAACAAACCAUUGCUUAUGCUGUUAUAUACUAGAGAAAUUUUGUUUUGCUUGCUGUUUUAACUUGACAGAUGAAGGACUUUAGUUGAACUUCAACAGAGGAUUGAGCAUCA
B20: chr3:141443649:141443750:+|CDS|ENSG00000177311|unk|FALSE|unique (ssRNA)
RNA: GGGAGUUCUACAGUCCGACGAUCCCUACCAUUGGACAAAAUGGAGGUUCAUUCACAGGUCCAGAACCUUUAUUAUCUGAAAAUAGGAUUGGUGAAUUUUCCAGUACCGGAAGUACUUUGCCAGACACGGACCACAUGGUUAAACAACAGAGGAUUGAGCAUCA
B21: chr11:56742830:56743766:-|CDS|ENSG00000172457|control|control|control (ssRNA)
RNA: GGGAGUUCUACAGUCCGACGAUCGACAAAGUAGCUGCUCUGUUCUACACCGUGAUCAACCCACUGCUCAACCCUCUCAUCUAUAGCCUGAGAAACAAAGAUAUCAAAGAGGCCUUCAGGAAAGCAACACAGACUAUACAACCACAACAGAGGAUUGAGCAUCA
B22: chr5:181194513:181194614:-|3pUTR|ENSG00000146054|unk|FALSE|unique (ssRNA)
RNA: GGGAGUUCUACAGUCCGACGAUCUCUUUGAGUGACAAGCCCGGGACAACAGCCAGUGGGCAUCACGGCUCUCCAGCACUCCUUAGCCGGAGGAUACAGAGUGAUGGGUGCAUCCUGACCAAUGCGACAACCAACACGUGCUCUCAACAGAGGAUUGAGCAUCA

The binders below were run against T1, UNK ZnF1-6 (called full-length) (human, UniProt Q9C0B0 30-357) (assay: nsRBNS (natural sequence RNA bind-n-seq); RBNS binding buffer (assumed for nsRBNS): 25 mM Tris pH 7.5, 150 mM KCl, 3 mM MgCl2, 0.01% Triton X-100, 500 ug/ml BSA, 20 U/ml SUPERase-In, 4 C; UNK is unkempt and MSI1 is Musashi-1; names of the RNAs are library labels; protein concentration not given here; high values mean tight binding).
T1 sequence: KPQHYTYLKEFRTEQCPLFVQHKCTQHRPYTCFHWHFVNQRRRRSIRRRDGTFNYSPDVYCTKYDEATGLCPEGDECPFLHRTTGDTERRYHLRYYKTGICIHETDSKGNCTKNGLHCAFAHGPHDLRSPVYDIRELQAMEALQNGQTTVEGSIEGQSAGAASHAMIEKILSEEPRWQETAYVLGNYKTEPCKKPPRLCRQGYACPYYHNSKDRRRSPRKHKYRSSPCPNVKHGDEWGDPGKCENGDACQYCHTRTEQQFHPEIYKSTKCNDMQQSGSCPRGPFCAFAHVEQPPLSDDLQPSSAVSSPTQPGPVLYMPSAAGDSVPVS
Binder B1 has a binding signal of 0.606 enrichment R.
B2 showed a binding signal of 0.726 enrichment R.
Work on B3 yielded a binding signal of 0.442 enrichment R.
B4 was tested, and the binding signal was 0.792 enrichment R.
Work on B5 yielded a binding signal of 0.883 enrichment R.
For B6, the binding signal was 0.403 enrichment R.
B7 gave a binding signal of 0.772 enrichment R.
In the case of B8, the binding signal is reported as 0.516 enrichment R.
Binder B9 has a binding signal of 0.344 enrichment R.
Work on B10 yielded a binding signal of 0.327 enrichment R.
With B11 the binding signal was 0.483 enrichment R.
In the case of B12, the binding signal is reported as 1.07 enrichment R.
B13 gave a binding signal of 0.551 enrichment R.
B14 gave a binding signal of 0.347 enrichment R.
With B15 the binding signal was 0.98 enrichment R.
For B16, the binding signal was 0.507 enrichment R.
In the case of B17, the binding signal is reported as 0.461 enrichment R.
B18 was tested, and the binding signal was 0.76 enrichment R.
For B19, the binding signal was 0.582 enrichment R.
B20 showed a binding signal of 0.432 enrichment R.
Work on B21 yielded a binding signal of 0.777 enrichment R.
Binder B22 has a binding signal of 0.573 enrichment R.
